In PubChem BioAssay AID588855 (National Center for Advancing Translational Sciences (NCATS), 2011):
Screen size: about 410,000 compounds; about 5,000 (1.2%) were called active. The inconclusive results got no clear call from the source; some entries with a clear call stand among them for comparison. Calls come from the whole dose curve; as a rule, active = well fitted inhibition curve with a large enough effect; inconclusive = small, poorly fitted or top-dose-only effect; inactive = no such curve, though single readings can be large or run the other way. A potency beside an inconclusive call is a rough fit, not a confirmed value.

test: qHTS for Inhibitors of TGF-b; details: HepG2 CAGA-GFP TGF-b/SMAD3 reporter, GFP fluorescence, 18 h, TGF-beta stimulated, 500 pg/mL final; series mostly up to 46.1 µM; note: nearly all actives have a fitted effect of over 65% in size
How it was run: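 HEPG2 CAGA-GFP, 1000 cells/well; 2 h settle, 37 C; cpd via pin tool; TGF-b 500 pg/mL final; 18 h, 37 C; GFP imaging ex488/em500-530; %Activity normalised to -TGF-b and +DMSO controls; CRC fit, curve class.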
Potency is the fitted concentration of half-maximal effect; tags give direction and shape of the fitted curve.

| Compound | Potency |
| --- | --- |
| COC(=O)C(NC(=O)CCc1c(C)nc2c(-c3ccccc3)c(C)nn2c1C)C(C)C (stereo not given) | inconclusive: 15.8 µM [inhibitor, partial curve, poor fit] |
| O=C1CCCc2cc3c(cc21)CC1(C3)Cc2cc3c(cc2C1)C(=O)CCC3 | inconclusive: 0.708 µM [inhibitor, full curve, poor fit] |
| O=C(OCc1cc([N+](=O)[O-])cc2c1OCOC2)c1ccc2ccccc2n1 | inactive |
| Cc1ccc(C2=NS(=O)(=O)N(C)C(C(=O)Nc3ccc(F)cc3F)=C2)cc1 | inconclusive: 15.8 µM [inhibitor, single point] |
| CCc1ccc(NC(=O)[C@@H](NC(=O)[C@@H]2Cc3ccccc3CN2)C(C)CC)cc1 (stereo not given in full) | inconclusive: 3.55 µM [inhibitor, partial curve, poor fit] |
| COc1cccc(CN2CCN(c3cccc(C(F)(F)F)c3)CC2)c1OC | inconclusive: 35.5 µM [inhibitor, single point] |
| C=CCn1c(=S)[nH]c2scc(-c3cccs3)c2c1=O | inconclusive: 15.8 µM [inhibitor, single point] |
| CCN(CC)CCCNc1sc(S(=O)(=O)c2ccccc2)nc1S(=O)(=O)c1ccc(Cl)cc1 | inconclusive: 35.5 µM [inhibitor, single point] |
| O=C(Nc1ccccc1)c1ccc(S(=O)(=O)NCC2CCCO2)cc1 (stereo not given) | inactive |
| CCOC(=O)c1c(C)[nH]c(CCC(=O)NC(C)c2ccccc2)c1C (stereo not given) | inconclusive: 35.5 µM [inhibitor, single point] |
| COc1ccc(C2=NOC(Cn3nc(-c4ccccc4)cc3C(=O)NCc3ccco3)C2)cc1 (stereo not given) | inconclusive: 5.62 µM [inhibitor, single point] |
| Cc1ccc2[nH]c(-c3ccccc3)c(CN(C)C)c(=O)c2c1 | inconclusive: 22.4 µM [inhibitor, single point] |
| [O-]/C(=C(\C(=S)Nc1cccc2ccccc12)[n+]1cccc(CO)c1)c1ccc(Cl)s1 | inconclusive: 35.5 µM [inhibitor, single point] |
| Fc1ccc(Nc2ncnc3onc(-c4ccc(Cl)cc4)c23)cc1Cl | inconclusive: 22.4 µM [inhibitor, single point] |
| Nc1nc(F)cc(N2CCCCCC2)n1 | inactive |
| CC1CCN(S(=O)(=O)c2ccc3c(c2)N(CC(=O)NCCc2ccccc2)C(=O)CO3)CC1 | inconclusive: 35.5 µM [inhibitor, single point] |
| O=C(NC(C(=O)N/N=C/c1c2ccccc2cc2ccccc12)c1n[nH]c(=O)c2ccccc12)c1ccccc1 (stereo not given) | inconclusive: 17.8 µM [inhibitor, single point] |
| CC(C)(C)S(=O)N1Cc2cc(C(=O)N3CCOCC3)nc(-c3cccc(Br)c3)c2[C@@H]1CCO (stereo not given in full) | inactive |
| CC(c1ccco1)N(C(=O)c1ccccc1F)c1ccccn1 (stereo not given) | inactive |
| Cc1nc2ccn(Cc3cccs3)c(=O)c2cc1C(=O)N1CCN(c2ccccc2F)CC1 | active: 20 µM |
| C=CCNC(=S)Nc1sc2c(c1C(=O)OCC)CC(C)(CC)OC2 (stereo not given) | inconclusive: 6.31 µM [inhibitor, single point] |
| Cc1ccc(S(=O)(=O)n2c(N)nc3cc(C)c(C)cc32)cc1 | inactive |

| Compound | Potency |
| --- | --- |
| Cc1ccc(NS(=O)(=O)c2ccc3[nH]c4c(c3c2)CCCC4)cc1N(C)C | inconclusive: 17.8 µM [inhibitor, partial curve, poor fit] |
| CC(C)CC(COCc1cccc(C(F)(F)F)c1)N1CCN(C(=O)c2cccc(C(F)(F)F)c2)CCC1=O (stereo not given) | inconclusive: 8.91 µM [inhibitor, partial curve, poor fit] |
| CCn1c(/C=C/Nc2ccccc2)[n+](CC)c2cc(Cl)c(Cl)cc21 | inconclusive: 35.5 µM [inhibitor, single point] |
| CN(CC(=O)Nc1ccc(F)cc1[N+](=O)[O-])C1CCS(=O)(=O)C1 (stereo not given) | inactive |
| Cc1cc(C)cc(-n2c(SCC(=O)N3CCOCC3)nc3c([nH]c4ccccc43)c2=O)c1 | inactive |
| COc1ccc(C2=NNC(=Nc3cc(S(=O)(=O)N(C)C)ccc3C)SC2)c(OC)c1 | inconclusive: 4.47 µM [inhibitor, full curve] |
| CN(C)c1oc(-c2ccccc2)nc1C#N | inactive |
| COc1ccc(C(C)(O)c2nc(-c3ccc(OC)c(OC)c3)cs2)cc1 (stereo not given) | inactive |
| Cc1cccc(C2c3[nH]c4ccccc4c3CCN2C(=O)c2cc(C(C)C)nc(N)n2)n1 (stereo not given) | inconclusive: 0.112 µM [inhibitor, full curve, poor fit] |
| C=CCC[C@@H](Cc1ccc(F)cc1)C(=O)OC[C@@H](NC(=O)[C@@H](CC=C)CC(=O)N[C@@H](CO)Cc1ccccc1)C(C)(C)C | inconclusive: 11.2 µM [inhibitor, partial curve, poor fit] |
| Cc1ccc(CNC(=O)c2ccc(CSCc3cccc(C)c3)o2)cc1 | inconclusive: 25.1 µM [inhibitor, single point] |
| CCOCCn1c(N2CCN(c3ccccc3)CC2)nc2c1c(=O)n(C)c(=O)n2C | inconclusive: 3.16 µM [inhibitor, single point] |
| CN(C1CCCCC1)S(=O)(=O)c1cn(C)c(=O)n(C)c1=O | inconclusive: 35.5 µM [inhibitor, single point] |
| CC12CC3CC(C)(C1)CC(C(=O)NC(=S)N1CCOCC1)(C3)C2 | inconclusive: 35.5 µM [inhibitor, single point] |
| COc1ccc(-c2cn(-c3ccccc3)nc2C(=O)O)cc1OC | inactive |
| Cc1nnc(NC(=O)CSc2nc(C(C)C)nc3ccccc23)s1 | inactive |
| CC1(c2ccccc2)CC(C)(C)N(C(=O)c2cccc(Cl)c2)c2ccccc21 (stereo not given) | inconclusive: 35.5 µM [inhibitor, single point] |
| Cn1c(=O)[nH]c(=O)c2c1nc(CN1CCN(c3cccc(Cl)c3)CC1)n2Cc1ccccc1Cl | inconclusive: 5.62 µM [inhibitor, single point] |
| O=C(Nc1ncc([N+](=O)[O-])s1)c1ccc2c(c1)OCO2 | inconclusive: 20 µM [inhibitor, partial curve, poor fit] |
| Cc1cc2[nH]c(=O)c(=O)[nH]c2cc1S(=O)(=O)Nc1cccc(Cl)c1 | inactive |
| O=C(NCCN1CCCC1)C1COc2ccccc2O1 (stereo not given) | inconclusive: 35.5 µM [inhibitor, single point] |
| Cn1nnc(NC(=O)/C=C/c2ccco2)n1 | inconclusive: 7.94 µM [inhibitor, partial curve] |

| Compound | Potency |
| --- | --- |
| Cc1ccc(S(=O)(=O)N2CCCCC2)cc1C(=O)OC1CCCCC1=O (stereo not given) | inconclusive: 6.31 µM [inhibitor, full curve] |
| COc1ccc(C(CCNCc2ccccc2F)c2ccc(F)cc2)cc1 (stereo not given) | inconclusive: 0.112 µM [inhibitor, full curve, poor fit] |
| CC1CC(=O)N(CC(=O)NCc2ccc3c(c2)OCO3)c2ccccc2S1 (stereo not given) | inactive |
| NS(=O)(=O)c1cccc(Nc2nc3ccccc3nc2NS(=O)(=O)c2ccc(Cl)cc2)c1 | inconclusive: 35.5 µM [inhibitor, single point] |
| Cc1ccc(NC(=O)CSc2nnc(C3CC3)n2C)cc1S(=O)(=O)N1CCCCC1 | inconclusive: 17.8 µM [inhibitor, single point] |
| CCc1ccc2c(c1)C(c1ccc([N+](=O)[O-])cc1)=NNC(c1ccc(C)cc1)=N2 | inactive |
| COc1ccc(NC(=O)Cc2nnc(SCC(=O)NC3CCCC3)n2C)cc1 | inactive |
| O=C(C[C@@H]1C/C=C\C[C@@H](Cc2ccc(F)cc2)C(=O)OC[C@@H](Cc2ccccc2)NC1=O)N[C@H](CO)Cc1ccccc1 | inconclusive: 3.98 µM [inhibitor, full curve] |
| Cc1cccc(NS(=O)(=O)c2ccc(C3CCCCC3)cc2)c1 | inconclusive: 15.8 µM [inhibitor, partial curve, poor fit] |
| O=c1cc(-c2ccccc2)oc2ccc(O)cc12 | inconclusive: 35.5 µM [inhibitor, single point] |
| COc1ccc(OCC(=O)NNc2c3ccccc3nc3ccccc23)cc1 | inconclusive: 1 µM [inhibitor, full curve, poor fit] |
| O=C(CC1(O)C(=O)N(C/C=C/c2ccccc2)c2ccccc21)c1ccccn1 (stereo not given) | inconclusive: 35.5 µM [inhibitor, single point] |
| O=C(Cc1c(C(=O)O)[nH]c2ccccc12)NCCN1CCN(c2ccccc2F)CC1 | inconclusive: 5.62 µM [inhibitor, single point] |
| O=C(CCCOc1ccc(Br)cc1)Nc1ccc(S(=O)(=O)N2CCOCC2)cc1 | inactive |
| COc1ccc(C)cc1NC(=O)C(Cc1ccccc1)NS(=O)(=O)c1cccs1 (stereo not given) | inconclusive: 17.8 µM [inhibitor, partial curve, poor fit] |
| O=C(NC1CC(=O)N(c2cccc(F)c2)C1)c1cc2ccccc2o1 (stereo not given) | inconclusive: 35.5 µM [inhibitor, single point] |
| Cc1ccc(S(=O)(=O)NCC(=O)Nc2cccc([N+](=O)[O-])c2)cc1 | inactive |
| Cc1ccsc1C(=O)Nc1cccc(S(=O)(=O)N(C)C)c1 | inactive |
| CCOCCOCCC(C(=O)O)P(=O)(c1ccccc1)c1ccccc1 (stereo not given) | inconclusive: 4.47 µM [inhibitor, single point] |
| Cc1cccc2c(C(=O)N3CCN(C(=O)c4ccco4)CC3)cc(-c3cccc(Br)c3)nc12 | inconclusive: 11.2 µM [inhibitor, partial curve, poor fit] |
| CCOC(=O)C(C)Oc1cccc2c(=O)n(CC(=O)NCCc3ccccc3)ccc12 (stereo not given) | inactive |
